Measurements from the supplement of paper PMC3334620.
Over roughly 33,000 sequences, “E-score (-0.5 to 0.5)” has its median near -0.054; the highest 2% begin near 0.39. This is one part of the list.

Molecular target: Ylr278c (UniProt Q05854)
Assay: PBM E-score (8-mer binding enrichment) (E-score (-0.5 to 0.5)); higher = stronger / more preferred TF binding; most listed sequences are background and not binding sites
Conditions: protein concentration: 200 nM; construct: GST-DNA-binding domain
In short: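 Yeast transcription factors, full-length or as DNA-binding domains, were expressed with a GST tag using PURExpress in vitro transcription/translation. At about 100-200 nM they were applied to universal all-10-mer Agilent arrays, double-stranded by primer extension on fresh or once-stripped slides. Fluorescent anti-GST detected bound protein, and masliner normalised the scans. E-scores for ungapped eight-base words, pooled with reverse complements, came from the Universal PBM Analysis Suite.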

| Sequence | PBM E-score |
| --- | --- |
| GCTTAATA | -0.0998 |
| ATGGTCTG | -0.143 |
| CATTCGAA | -0.0389 |
| ATTCGTTG | 0.0525 |
| GATGGGAC | 0.195 |
| GATGTAAC | 0.0353 |
| CGGGAGCC | 0.0673 |
| CCTGTCCG | 0.141 |
| CCTGCTTC | -0.0852 |
| CATATGCA | -0.109 |
| GGAAGGCC | 0.199 |
| GTGCAAAC | -0.0686 |
| ACCCAAAG | -0.137 |
| GTGTAGCA | -0.286 |
| CGTCAACA | -0.131 |
| AGCTTAGA | -0.142 |
| AGGTGATA | -0.199 |
| CAAGAGTG | -0.175 |
| TACGAAGA | -0.146 |
| AGCTTACT | -0.136 |
| AAGGCAGC | -0.0879 |
| ACATATTG | -0.277 |
| CACCCGGG | 0.199 |
| CCAGAAAG | 0.0257 |
| CAGCAACA | 0.0587 |

| Sequence | PBM E-score |
| --- | --- |
| ATCAATCG | -0.0159 |
| AGGCACCC | -0.229 |
| CCGGGCAC | 0.385 |
| CGATGGTC | -0.126 |
| ATTCGGAG | 0.422 |
| CCTTGTAG | -0.13 |
| CATAATGA | -0.0996 |
| GGGCCCGA | 0.244 |
| GAAGTCAC | -0.0697 |
| CTCTCAAG | -0.0889 |
| ATTGTGCA | -0.021 |
| ATCGACTG | -0.0552 |
| TATTTACA | -0.188 |
| CTCCCCCC | -0.191 |
| AGCTCTTC | 0.121 |
| AATGTACG | -0.121 |
| AAGACAAT | -0.0338 |
| CCTTCTAC | -0.183 |
| AGTATAGA | 0.0233 |
| ACAGTTCC | 0.278 |
| CGCGGCCG | 0.251 |
| GTGCTTCA | -0.111 |
| ACGCCCCA | 0.137 |
| CTTCTTGC | -0.109 |
| GGGAAGCA | -0.0458 |

| Sequence | PBM E-score |
| --- | --- |
| CGCCAGCC | 0.153 |
| ACACTGGC | -0.139 |
| CGGCGGAC | 0.411 |
| CGTTCCAG | -0.193 |
| TACAGAGA | -0.221 |
| GCAACTGC | 0.0356 |
| CCAGAGAA | -0.162 |
| ACTTGGGG | 0.0438 |
| AATGCCCA | -0.203 |
| ATCTCGGC | 0.354 |
| GCCCATTA | -0.195 |
| CAAAAAAC | -0.0175 |
| GACAAACC | -0.0781 |
| ACAATAAG | -0.0171 |
| GATCCACA | -0.0592 |
| AAATTCCG | 0.471 |
| TGCCGGAA | 0.435 |
| GCTGTTTA | -0.018 |
| GACGACTA | -0.319 |
| ACACTATC | 0.00097 |
| TCACACCA | -0.134 |
| CCTCTCCA | -0.351 |
| CAGAATGC | 0.153 |
| AGCCGGTC | 0.134 |
| CGTCTTCA | 0.00371 |

| Sequence | PBM E-score |
| --- | --- |
| ACGGGTGA | 0.138 |
| GCCCACGC | -0.0457 |
| CATAATTC | 0.075 |
| ACGAGTCA | -0.285 |
| AAATGTAC | -0.103 |
| TAAACTAA | 0.0158 |
| CGAAGAAA | 0.184 |
| AGTGATCC | -0.0556 |
| CCGGGAGA | 0.362 |
| CCCCAGTA | 0.0299 |
| GTCTTAAC | -0.296 |
| CAATTTAC | -0.0357 |
| ATAGGCTC | -0.0304 |
| CCAAGAGC | -0.214 |
| CCGAAACG | 0.278 |
| CGTAGTGC | -0.0731 |
| GATATGCC | 0.0319 |
| CGAGAACA | 0.118 |
| CCGTGGTC | 0.129 |
| GGAAGCCA | 0.0617 |
| CCGCACCA | 0.23 |
| CCGAGCAA | 0.268 |
| CAGATAGA | -0.201 |
| CCAGCCAA | -0.0223 |
| AGCTCACT | -0.215 |

| Sequence | PBM E-score |
| --- | --- |
| AGTTCGTG | -0.0935 |
| CGTTGCTA | -0.0591 |
| CTTAACGA | -0.0439 |
| CGTGTTGA | -0.173 |
| AGCTATCG | -0.0675 |
| CGCGGCAA | 0.303 |
| GTACTTGA | -0.122 |
| CCTCGTAG | -0.35 |
| ACTACATG | -0.118 |
| ATTTCATA | -0.0705 |
| GTCAGGCA | -0.0616 |
| ACAAAGAG | -0.197 |
| CAGTCGGC | 0.272 |
| CGGATACG | 0.274 |
| ATCTACGG | 0.264 |
| CAGTGATG | -0.338 |
| AAAAAATC | 0.0685 |
| GGGGGGAC | -0.209 |
| CCGCTGAG | 0.115 |
| ACTTGGAC | 0.0757 |
| ACCTTCTC | 0.143 |
| ACCTGCCG | -0.0458 |
| AGACATAG | -0.00079 |
| TCAATGAA | -0.219 |
| AGCGGCTA | 0.1 |

| Sequence | PBM E-score |
| --- | --- |
| ATTGCGCC | 0.0625 |
| AGAACACA | -0.0824 |
| AGGTTAGC | -0.165 |
| CTATGTGA | -0.127 |
| CGAACATA | 0.00022 |
| CAGTCAAG | -0.309 |
| GGATCCCA | 0.106 |
| GCACCTAC | -0.0908 |
| TAGACCAA | -0.167 |
| AGAAATGA | -0.167 |
| TACCAGAA | -0.0232 |
| ATGACCCC | 0.0304 |
| CGTTCGAC | -0.121 |
| ACCGACTC | 0.107 |
| CTATTACC | -0.0398 |
| ACGGGTAC | -0.231 |
| GGGCTGAC | 0.0494 |
| AAGTAGAG | -0.234 |
| TAAAATGA | -0.0221 |
| CCAGTGGC | -0.234 |
| AAGGTCGG | 0.227 |
| AATAAGTG | -0.242 |
| AGCTTCTA | -0.0932 |
| ACACATCT | -0.00913 |
| CCCACTAA | -0.0708 |

| Sequence | PBM E-score |
| --- | --- |
| CGTGGCAC | -0.108 |
| CAGAGTCC | 0.0837 |
| CCCAGCTC | 0.0332 |
| GAATCCTC | -0.16 |
| CCCTAGCC | -0.232 |
| CTTTAGGC | -0.107 |
| ACGTACAA | -0.164 |
| GCCCGGCA | 0.255 |
| ATGACGCA | -0.168 |
| CTCAACGA | -0.15 |
| ATGGGAGG | -0.0262 |
| GCTTTCCC | 0.124 |
| CTTGTACC | -0.145 |
| CGGGTGTA | 0.182 |
| TACAGCGA | -0.268 |
| AAATGGCT | -0.137 |
| ATTCAATG | -0.0726 |
| AAGGTTAC | -0.159 |
| ATCGTCTC | 0.117 |
| ACTACTAC | -0.00327 |
| TGCATGCA | -0.206 |
| AGCTCGTA | -0.257 |
